In all, about 420,000 compounds went through this assay and about 50,000 (12%) were called active. Inconclusive means that the source gave no clear call. Such entries were picked first, then a sample of the others. Calls follow the shape of the dose curve; as a rule, active = well fitted inhibition curve with a large enough effect; inconclusive = small, poorly fitted or top-dose-only effect; inactive = flat fitted curve, though single readings scatter. Potencies of inconclusive entries are left out as doubtful fits.
assay: qHTS for Inhibitors of human tyrosyl-DNA phosphodiesterase 1 (TDP1): qHTS in cells in presence of CPT; details: chicken DT40 Tdp1-/-;hTDP1 cells + 20 nM CPT, ATP luminescence, 48 h; activity change, negative = growth inhibition: at 46.2 µM (top of the series); also: nearly all actives have a fitted effect of over 55% in size
Summary of the method: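 Chicken DT40 Tdp1-/- cells complemented with human TDP1, 400 cells/well, exposed to compounds plus 20 nM camptothecin for at least 48 h at 37 C; viability read as ATP content by CellTiter-Glo luminescence.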
% is scaled to controls: 0 for no effect and ±100 for the full control effect; potency is read from the fitted curve at half-maximal effect; tags tell the direction and shape of the fitted curve.

Structure (SMILES)	Potency	activity change, negative = growth inhibition
COc1ccc(C(=O)c2coc3ccc(O)c(CN(C)C)c23)cc1	inconclusive [inhibitor, single point]	
Cc1ccc(-c2nnc(-c3ccccc3)c(-c3ccccc3)n2)cc1		inconclusive: -31% [inhibitor]
CNS(=O)(=O)c1ccc(CCC(=O)N2CCOCC2)cc1	inconclusive [inhibitor, single point]	
CCO[C@H]1OC(C(=O)N2CCN(Cc3ccccc3)CC2)=C[C@@H](c2coc3ccccc3c2=O)[C@@H]1CCCO	active: 25.9 µM	
O=[N+]([O-])c1ccc(C[n+]2cccc3ccccc32)cc1	inconclusive [inhibitor, single point]	
N#Cc1ccccc1S(=O)(=O)N1CCN(C(=O)c2cc(=O)[nH]c3ccccc23)CC1	inconclusive [inhibitor, partial curve]	
CC(NC(=O)c1ccc(OC2CCN(C(=O)c3cccnc3)CC2)cc1)C1CC1 (stereo not given)	inactive	
CN(CCCNC(=O)CSc1cc(=O)n(C)c2ccc(Cl)cc12)Cc1ccccc1	inconclusive [inhibitor, single point]	
CC(C)NC(=O)C1(C)CCN1C(=O)C/C=C/c1ccccc1 (stereo not given)	inconclusive [inhibitor, single point]	
CC(=O)c1cccc(NC(=O)CCCOc2ccc(C)cc2)c1	inactive	
O=C(CCl)N(c1ccccc1)c1c[nH]c2ccccc12	active: 2.31 µM	
COc1cccc(C(NC(C)=O)c2nc(-c3ccc(OC)nc3)cs2)c1 (stereo not given)	inconclusive [inhibitor, single point]	
CCc1noc(C)c1C(=O)Nc1ccc(Cl)c(S(=O)(=O)N2CCCCC2)c1	inconclusive [inhibitor, single point]	
COc1cc(C(=O)Nc2ccc3nc(SCc4ccccc4)sc3c2)cc(OC)c1OC	active: 13 µM	
COc1ccccc1-c1cncnc1N(C)Cc1ccco1	inactive	
COc1ccccc1/C=C/c1nc(C#N)c(N(C)C)o1	inconclusive [inhibitor, single point]	
CCN1CCN(C(=O)/C(=C/c2cccs2)NC(=O)c2ccc(C)c(C)c2)CC1	inconclusive [inhibitor, partial curve, poor fit]	
CC(C)(C)C(C(=O)Oc1ccccc1)c1ccccc1 (stereo not given)	inconclusive [inhibitor, single point]	
CCOC(=O)N1CCc2c(sc3c2c(=O)n(-c2ccc(CC)cc2)c(=O)n3CC(=O)c2ccc(F)cc2)C1	active: 13 µM	
O=C1CCC(=O)N1c1ccc(NCCc2cccc(F)c2)c([N+](=O)[O-])c1	inactive	
Cc1c2cnn(CC(=O)Nc3cccc(C(F)(F)F)c3)c(=O)c2c(C)n1Cc1ccccc1Cl	inconclusive [inhibitor, single point]	
COc1cc(Cl)c(S(=O)(=O)N2CCCC2)cc1Cl	inactive	
Cc1cc(=O)n2nc(-c3ccccc3)sc2c1C#N	inconclusive [inhibitor, single point]	
Cc1nc2c(c(=O)n1CCC(C)C)c1nc3ccccc3nc1n2Cc1ccc2c(c1)OCO2	inconclusive [inhibitor, single point]	

Structure (SMILES)	Potency	activity change, negative = growth inhibition
CC(Oc1ccccc1)C(=O)N=C1SC2CS(=O)(=O)CC2N1Cc1ccccc1 (stereo not given)	inactive	
Cc1c2cnn(CC(=O)NC(C)C)c(=O)c2c(C)n1Cc1ccccc1Cl	inconclusive [inhibitor, single point]	
CCc1cccc(NC(=O)c2ccc(CNc3c(N4CCCC4)c(=O)c3=O)cc2)c1	inconclusive [inhibitor, single point]	
O=C(c1c(F)cccc1F)N1CCCC(c2nc(-c3ccc(F)cc3)no2)C1 (stereo not given)	active: 23.1 µM	
COc1ccc2c(c1)CCc1cnc(-n3ncc(C(=O)NC4CCOC4)c3C3CC3)nc1-2 (stereo not given)		inactive: -7.78% [at 9.04 µM]
CC(NC(=O)COC(=O)C1CC1C)c1ccccc1 (stereo not given)	inactive	
C[C@H](CCC(=O)OCc1cn(CC(=O)c2ccc(O)cc2)nn1)C1CC[C@H]2[C@@H]3CC[C@@H]4C[C@H](O)CC[C@]4(C)[C@H]3C[C@H](O)[C@]12C (stereo not given in full)	inconclusive [inhibitor, single point]	
COc1ccc(C(=O)OC(C(=O)c2ccc(C)cc2)c2ccccc2)cc1 (stereo not given)	inconclusive [inhibitor, partial curve]	
Cc1ccc(C(=O)NCC(c2cccs2)S(=O)(=O)c2cccs2)cc1 (stereo not given)	active: 20.6 µM	
Cc1ccccc1NC(=O)COC(=O)CCC(=O)c1cccs1	inactive	
Cc1ccc(C)c(S(=O)(=O)N2CCCCC2CCNC(=O)C(=O)NCc2ccccn2)c1 (stereo not given)	inconclusive [inhibitor, single point]	
CCCNC(=O)c1ccc(N2CCC3(CC2)CC(c2ccccc2)=NO3)c([N+](=O)[O-])c1	active: 20.6 µM	
Clc1ccc(CNc2ccc(N3CCN(Cc4ccccc4)CC3)cc2)cc1	inconclusive [inhibitor, single point]	
C#Cc1ccc(NC(=O)C2(C)CCN2C(=O)Cc2ccc(C(C)C)cc2)cc1 (stereo not given)	inconclusive [inhibitor, single point]	
COc1ccccc1-c1ccnc(-n2ncc(C(=O)N(C)C(C)c3nc(C)cs3)c2C2CC2)n1 (stereo not given)	inconclusive [inhibitor, single point]	
CSc1ccc(C2CC(=O)Nc3nc(SC)[nH]c(=O)c32)cc1 (stereo not given)	inconclusive [inhibitor, partial curve]	
O=C(NCC1CCCO1)c1cc([N+](=O)[O-])ccc1N1CCC(Cc2ccccc2)CC1 (stereo not given)	inconclusive [inhibitor, single point]	
CCNC(=S)Nc1ccc(Oc2ccccc2)cc1	inconclusive [inhibitor, single point]	
CCCC(=O)Nc1ccc(C(=O)NCC2CCCO2)cc1 (stereo not given)	inactive	
CC(C)CC(C(=O)O)N1C(=O)[C@@H]2[C@H](C1=O)[C@@H]1C[C@H]2C(Br)C1Br (stereo not given in full)	inactive	
CCN(CC)S(=O)(=O)c1ccc(NC(=O)c2ccc(NS(C)(=O)=O)cc2)cc1	inactive	
Cc1cccc(N=Nc2ccc(O)c3ncccc23)c1	active: 7.31 µM	
CSc1cccc(CNC(=O)C2CCC(=O)N(CCc3ccccc3)C2)c1 (stereo not given)	inconclusive [inhibitor, single point]	
COc1cccc(N2CCN(C3C(=O)c4ccccc4N3C(C)=O)CC2)c1 (stereo not given)	inconclusive [inhibitor, single point]	

Structure (SMILES)	Potency	activity change, negative = growth inhibition
CCOC(=O)[C@]12CCCC=C1N(Cc1cccc3ccccc13)C(=O)[C@H](CC(=O)NCCCCc1ccccc1)C2	inconclusive [inhibitor, single point]	
O=C(Cc1ccc(F)cc1)Nc1cc(S(=O)(=O)N2CCOCC2)ccc1N1CCCCC1	inconclusive [inhibitor, single point]	
Cn1c(=O)oc2cc(S(=O)(=O)N3CCCC(C(=O)NCC4COc5ccccc5O4)C3)ccc21 (stereo not given)	inconclusive [inhibitor, single point]	
COC(=O)[C@@]1(Cc2ccc(F)cc2)[C@H]2c3cc(C(=O)N(C)C)n(Cc4cc(C)n(C)n4)c3C[C@H]2CN1C(=O)c1ccccc1	inconclusive [inhibitor, single point]	
Cc1cc(NC(=O)c2cnn3c(C(F)F)cc(C4CC4)nc23)no1	inconclusive [inhibitor, single point]	
C=CCNc1oc(-c2ccc(OC)cc2)nc1C#N	active: 16.4 µM	
CC(C(=O)Nc1cccc(S(=O)(=O)N2CCOCC2)c1)N1CCN(C)CC1 (stereo not given)	inactive	
CC(C)=CCC[C@H](C)C[C@@H]1Cc2[nH][nH]c(=O)c2[C@@H](c2ccc(F)cc2)O1	inconclusive [inhibitor, single point]	
Cc1cccc(OCC(=O)N(Cc2sccc2C)C2CCS(=O)(=O)C2)c1 (stereo not given)	inactive	
CCCCC(C(=O)NC1CCCC1)N(C(=O)c1snc(C(N)=O)c1N)c1ccc(F)cc1 (stereo not given)	inconclusive [inhibitor, single point]	
CCCNC(=O)C1CCC(Cn2c(=O)c3sccc3n(CC(=O)N3CCC(C)CC3)c2=O)CC1 (stereo not given)	inactive	
CN(Cc1ccccc1)C(=O)COC(=O)c1cc(S(=O)(=O)N(C)C)ccc1N1CCCC1	inconclusive [inhibitor, single point]	
N=C(N)S/C=C\C(=O)O	active: 16.4 µM	
Cc1cc(OCc2nc(N)nc(N)c2-c2ccc(Cl)c(Cl)c2)ccc1[N+](=O)[O-]	active: 0.58 µM	
COc1ccc(CCC(=O)Nc2ccc(C(=O)c3ccncc3)cc2)cc1	inactive	
O=C(COc1ccc(S(=O)(=O)N2CCOCC2)cc1Cl)N1CCOCC1	inactive	
CCCCNC(=O)C(NC(=O)c1cccc2ccccc12)C(=O)c1ccccc1 (stereo not given)	inconclusive [inhibitor, single point]	
CC1COC(Cn2c3ccccc3c3ccccc32)O1 (stereo not given)	inconclusive [inhibitor, single point]	
O=C(Nc1ccc(F)cc1)C1CCCCC1	inactive	
COc1ccccc1CNC(=O)c1ccc(SC)cc1OC	inconclusive [inhibitor, single point]	
Cc1ccc2nc(C(C)(C)C)c(Cc3ccccc3C(F)(F)F)n2c1	active: 16.4 µM	
O=C(CSc1n[nH]c(-c2ccccc2F)n1)Nc1cc(F)ccc1F	inconclusive [inhibitor, single point]	
